From PubChem BioAssay AID624296 (National Center for Advancing Translational Sciences (NCATS), 2012)
The campaign covered roughly 350,000 compounds. About 9,900 (2.8%) were called active. This list was built around the results that the source calls inconclusive (neither active nor inactive); the mix of calls is not that of the screen. Calls come from the whole dose curve; as a rule, active = well fitted activation curve with a large enough effect; inconclusive = small, poorly fitted or top-dose-only effect; inactive = no such curve, though single readings can be large or run the other way. Potencies of inconclusive entries are left out as doubtful fits.

experiment: A quantitative high throughput screen for small molecules that induce DNA re-replication in MCF 10a normal breast cells.; note: nearly all actives have a fitted effect of over 50% in size; for activity, positive = re-replication: % of control where 0% means no effect; conditions: MCF 10A DNA re-replication, Hoechst nuclear intensity, 48 h; activity, positive = re-replication: at 46.1 µM (top of the series)
Potency is the fitted concentration of half-maximal effect; tags give direction and shape of the fitted curve.

SMILES | activity, positive = re-replication | Potency
COc1ccc(NS(=O)(=O)c2cccc(C(=O)NCC(c3ccccc3)N(C)C)c2)cc1 (stereo not drawn) | inactive: -2.28% | –
Cc1ccc(C(=O)N/N=C/c2cn(Cc3ccccc3)c3ccccc23)cn1 | – | inconclusive [activator, single point]
O=C(Cc1cccc([N+](=O)[O-])c1)Nc1cccc(C(=O)N2CCCCC2)c1 | inactive: 1.57% | –
Fc1ccc(-c2c[nH]c(=S)n2Cc2ccccc2)cc1 | – | inconclusive [activator, single point]
NC(=O)c1cc(Cc2ccccc2)sc1NC(=O)c1ccco1 | – | inconclusive [activator, single point]
COc1ccc(/C=N/NC(=O)c2cc(C3CC3)[nH]n2)cc1OC | – | inconclusive [activator, full curve, poor fit]
CCN(CCO)c1ncnc2c1sc1nc(C(C)C)c3c(c12)CC(C)(C)OC3 | – | inconclusive [activator, partial curve]
CCOC(=O)[C@H](O)[C@@H](O)c1cccc([C@H](O)[C@@H](O)C(=O)OCC)c1 | inactive: 9.02% | –
Cc1ccccc1NS(=O)(=O)c1cc(C(=O)Nc2cccc(N(C)S(C)(=O)=O)c2)ccc1C | – | active: 14.6 µM
CC(=O)NS(=O)(=O)c1ccc(NC(=O)/C=C/c2cn(-c3ccccc3)nc2-c2ccccc2)cc1 | – | inconclusive [activator, partial curve, poor fit]
CN(C[C@H](CC1CCCCC1)N(C[C@H](Cc1ccccc1)N(CCc1ccccc1)N=O)N=O)N=O | inactive: 24% | –
COc1ccc(C(=O)NN/C(C)=C/C(=O)C(F)(F)C(F)(F)C(F)(F)F)cc1 | – | inconclusive [activator, single point]
Cc1nn(C(C)(C)C)c(OC(=O)c2cccs2)c1Sc1ccccc1 | – | inconclusive [activator, partial curve, poor fit]
CCCNC(=O)c1ccc(N2CCC3(CC2)CC(c2cccc(Br)c2)=NO3)c(NC(=O)c2ccc(Cl)c([N+](=O)[O-])c2)c1 | inactive: -33.4% | –
CSC(=S)N/N=C(\C)c1ccccc1 | inactive: -8.02% | –
Cc1ccc(S(=O)(=O)N(C)Cc2ccc(C(=O)N/N=C/c3ccc(OC(F)F)cc3)cc2)cc1 | – | inconclusive [activator, partial curve, poor fit]
OC1CCN(C(c2ccc3ncccc3c2)c2nnnn2C2CCCCC2)CC1 (stereo not drawn) | – | inconclusive [activator, single point]
O=C(Cc1ccccc1)NCC(=O)OCC(=O)c1ccc([N+](=O)[O-])cc1 | inactive: 17.6% | –
CN1CCN(C(=O)c2ccc(COc3ccc(Cl)cc3Cl)cc2)CC1 | – | inconclusive [activator, partial curve, poor fit]
CC(C)Oc1ccc(/C=N/NC(N)=S)cc1 | – | inconclusive [activator, single point]
COc1ccc(-c2csc(N(CC3CCCO3)C(=O)c3ccco3)n2)cc1 (stereo not drawn) | – | active: 16.4 µM
N#Cc1cc2nc(O)c(O)nc2cc1[N+](=O)[O-] | inactive: -3.69% | –

SMILES | activity, positive = re-replication | Potency
CN(C)S(=O)(=O)c1cccc(NC(=O)Cc2ccc(-c3ccccc3)cc2)c1 | – | inconclusive [activator, single point]
O=C(CSc1ncnc2ccccc12)c1cccs1 | – | inconclusive [activator, single point]
Cc1ccc([N+](=O)[O-])cc1Nc1nc(N2CCCC2)nc(N2CCCC2)n1 | – | inconclusive [activator, partial curve, poor fit]
Nc1ccc(S(=O)(=O)NCc2ccccc2)cc1 | inactive: 3.44% | –
N#CCc1c(C#N)c(N)nc(N2CCCC2)c1C#N | – | inconclusive [activator, full curve, poor fit]
O=C(COC(=O)c1ccc2c(=O)n3c(nc2c1)CCC3)Nc1ccc(OC(F)F)cc1 | inactive: 19.2% | –
Cc1cc(C)c(C#N)c(SCSCc2ccccc2)n1 | – | inconclusive [activator, single point]
CCCOc1ccc(OC(=O)Cc2ccc(OC)c(S(=O)(=O)N3CCOCC3)c2)cc1 | – | inconclusive [activator, partial curve, poor fit]
COC(=O)C1(C(F)(F)F)N=C(C(F)(F)F)Nc2ccc(Cl)cc21 (stereo not drawn) | inactive: -34.8% | –
O=C(NNc1ccccc1[N+](=O)[O-])Nc1ccccc1 | inactive: 1.31% | –
O=C(CNC(=O)c1ccc2c(c1)OCO2)N/N=C/c1cccc([N+](=O)[O-])c1 | inactive: -4.02% | –
Cn1cc(Cl)c(C(=O)NC(=S)Nc2sc3c(c2C#N)CCCCC3)n1 | – | inconclusive [activator, partial curve, poor fit]
COC(=O)[C@H](NC(=O)c1cc(-c2ccccc2)nc2ccccc12)c1ccccc1 | – | inconclusive [activator, full curve, poor fit]
Cc1ccccc1NC(=O)COC(=O)c1cccc(S(=O)(=O)N2CCCCC2)c1 | – | inconclusive [activator, single point]
CCn1c(O)c(N=NC(=O)Cn2ccc(C(F)(F)F)n2)c2ccccc21 | – | inconclusive [activator, partial curve, poor fit]
Cc1cnc(NC(=O)Nc2ccc(Cl)cc2)s1 | – | inconclusive [activator, single point]
Cn1c(=O)n(C)c2cc(NS(=O)(=O)c3ccc(Br)s3)ccc21 | – | inconclusive [activator, partial curve]
COc1cccc(C2C(C(=O)c3ccc(C)o3)=C(O)C(=O)N2c2cc(C)on2)c1 (stereo not drawn) | inactive: 9.19% | –
CCCc1nc2c(C)ccc(C)c2c(N)c1CC | – | inconclusive [activator, single point]
CC(C)Cc1nc2sc3c(c2c(=O)n1N)CC(C)(C)OC3 | – | inconclusive [activator, partial curve, poor fit]
Cc1cc(C(=O)OCC(N)=O)c(C)n1-c1ccccc1 | – | inconclusive [activator, partial curve, poor fit]
